The record followed here is PubChem BioAssay AID1240 (Sanford-Burnham Center for Chemical Genomics, 2008).

Hit rate of the full screen: of about 50,000 compounds, about 800 (1.6%) showed an effect of 50% or more. Some of the results follow.

The test deals with Bcl-2-like protein 10 (Homo sapiens) (UniProt Q9HD36). Kind of test: Phenotype converters, Bcl-B/TR3 peptide binding displacement, primary biochemical FP (AID 1240).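 Note: 0% = Bcl-B with tracer peptide and DMSO and 100% = tracer peptide lacking Bcl-B.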 As to conditions: GST-Bcl-B / FITC-TR3 peptide fluorescence polarization; stronger effect = higher value; compound at 3.75 mg/L. Background: In fluorescence polarisation assays a small probe gives low polarisation when free and higher when bound to something large.
Chain of UniProt Q9HD36 (Q9HD36 whole entry, looked up): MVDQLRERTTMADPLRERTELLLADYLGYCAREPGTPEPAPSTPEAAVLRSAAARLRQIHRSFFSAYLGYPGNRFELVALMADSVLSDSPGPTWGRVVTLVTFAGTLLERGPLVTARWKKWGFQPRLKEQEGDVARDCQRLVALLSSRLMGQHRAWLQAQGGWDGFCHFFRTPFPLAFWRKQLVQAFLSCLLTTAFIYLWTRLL
As for `CCOc1ccccc1OCCOc1ccc(Cl)c(CC)c1`, the displacement is -0.9%.
With `CCNC(=S)NNc1nc(N2CCCCC2)nc(N2CCOCC2)n1` the figure was -25.1%; with `COc1ccc(S(=O)(=O)N(Cc2ccccc2)c2ccccc2C(=O)O)cc1`, 2.3%; with `O=S(=O)(Nc1ccc(N2CCCCC2)cc1)c1cccs1`, -8.8%.
With `COC(=O)c1ccc(COc2ccc3c(c2)oc(=O)c2ccccc23)cc1` the figure was 12%.
On to `COc1cc(C(=O)Nc2c(C)cc(C)c(NC(=O)c3cc(OC)c(OC)c(OC)c3)c2C)cc(OC)c1OC`, for which the displacement was -0.6%.
In the case of `COc1cc(/C(C)=N/N2CCN(Cc3cccc4ccccc34)CC2)ccc1O` it was -2.5%; in that of `COc1cc(/C=C2\C(=O)NC(=O)N(c3ccc(Cl)cc3)C2=O)ccc1OCC(=O)O`, -9.7%.
In the case of `O=C(Nc1ccccc1[N+](=O)[O-])C1COc2ccccc2O1` (centres undefined) it was 5.2%; in that of `O=C(CN1C(=O)c2ccc([N+](=O)[O-])cc2C1=O)Nc1ccc(Br)cc1C(=O)O`, 16.2%; in that of `O=c1c2c(nc3cc(-c4ccc(F)cc4)[nH]n13)CCC2`, 16.7%.
In the case of `CCN(CC)C(=O)c1ccc(CN(c2cc(Cl)ccc2C)S(=O)(=O)c2ccccc2)cc1` it was -3.4%; in that of `COC(=O)c1ccc(C(c2ccc(C(=O)OC)cc2)(C(F)(F)F)C(F)(F)F)cc1`, 3.3%; in that of `CCOc1ccccc1NC(=O)c1c(NC(=O)c2ccccc2C)sc2c1CCCCC2`, -2.6%.
Regarding `Cc1c(NC(=O)Nc2ccc3ccccc3c2)c(=O)n(-c2ccccc2)n1C`, the displacement was -7.3%.
With `Cc1cc2nc3s/c(=C/c4ccc(-c5ccc(Cl)cc5)o4)c(=O)n3c2cc1C` the figure was 23.1%.
With `NNC(=O)CN1C(=O)Nc2ccc(Br)cc2C1c1ccccc1` (centres undefined) the figure was -2%.
Take `Cc1[nH]c2ccccc2c1C(=O)NS(=O)(=O)c1ccccc1Cl`: the displacement worked out at 21.7%.
In the case of `CCN(CC)S(=O)(=O)c1ccc(Cl)c(C(=O)NC2CCCCC2)c1` it was 14.8%; in that of `CC(C)Oc1ccc(C(=O)Nc2nc(-c3ccc(F)cc3F)cs2)cc1`, -2.7%; in that of `O=C(CCCN1C(=O)c2cccc3cccc(c23)C1=O)OCC(=O)c1ccc(F)cc1`, -39.8%.
In the case of `O=C(COc1ccccc1)Nc1nnc(Cc2ccccc2)s1` it was 12.7%; in that of `CC(/C=C/c1ccc(Br)cc1)=C\C(=O)O`, -2.1%.
Consider `CCOC(=O)/C(C(N)=NCCO)=C(/O)OCC`, for which the displacement is -7.2%.
With `COc1ccc2ccccc2c1-c1nnc2ccc3ccccc3n12` the figure was -21%; with `Cc1ccc(OCC(=O)Nc2c(C(C)C)cccc2C(C)C)cc1C`, 5%.
In the case of `Cc1cccc(C(=O)Nc2c(C(=O)N(C)C)cnn2-c2ccccc2)c1` it was -12.3%; in that of `COc1ccc2nc(NC(=O)c3ccc(S(=O)(=O)N(C)C)cc3)sc2c1`, 13.1%.
In the case of `COc1ccccc1N(CC(=O)Nc1cc(C)ccc1C)S(=O)(=O)c1ccccc1` it was 1.4%; in that of `CC(=O)Nc1ccccc1NC(=O)c1cccc([N+](=O)[O-])c1C`, 2.9%.
For the compound `Nc1ccccc1N=Cc1nc(-c2ccccc2)oc1O`, the displacement worked out at 0.4%.
With `O=C(O)C(Cc1ccc(O)cc1)c1ccccc1` (centres undefined) the figure was 5.6%; with `Cc1cc2nc(SCc3ccc(Cl)cc3)nc(C)c2cc1C`, 11%.
In the case of `c1ccc(CN2CCN(Cc3ccncc3)CC2)nc1` it was -13.8%; in that of `O=C(c1ccc([N+](=O)[O-])cc1)N1CCN(Cc2cccnc2)CC1`, -10.2%; in that of `COc1cc(/C=C(\C#N)c2ccc([N+](=O)[O-])cc2)c(OC)cc1Br`, 14.7%.
With `COc1ccccc1N=C(NOC(C)=O)c1nonc1N` the figure was 15%; with `CCOC(=O)c1c(NC(=O)C(C)(C)C)sc2c1CCC2`, 6.6%.
Consider `COC(=O)c1cc(NC(=O)c2cc(Br)ccc2OC)cc(C(=O)OC)c1`, for which the displacement worked out at 6.1%.
In the case of `O=C1C(Cl)=C(Nc2ccc(F)cc2)C(=O)N1c1ccccc1` it was 10.9%; in that of `COc1ccccc1N1CCN(/N=C(\C)c2ccc(F)cc2)CC1`, -8.5%.
In the case of `O=C(c1ccccc1[N+](=O)[O-])N1CCN(c2cccc(Cl)c2)CC1` it was -5.3%; in that of `COc1ccc(NC(=O)C(=O)N/N=C/c2cc(OC)ccc2OC)cc1`, 19%; in that of `C=CCn1c(NC(=O)c2ccc(C)cc2)nc2ccccc21`, -14.6%.
With `O=C(/C=C/c1ccco1)Nc1ccc(O)c(-c2nc3ccccc3o2)c1` the figure was -39%; with `O=C(NC(=S)Nc1ccc(N2CCCCC2)cc1)c1cccs1`, -7.9%; with `CCOC(=O)N1CCN(C(=O)c2ccc([N+](=O)[O-])cc2)CC1`, -8.4%.
Regarding `COc1ccc(/C=C/C(=O)NCCSCc2ccc(Cl)cc2)cc1OC`, the displacement is -6.5%.
Take `COC(=O)c1ccccc1N1C(=O)c2ccc(C(=O)O)cc2C1=O`: the displacement is 14.6%.
For `CCOC(=O)C(=O)Nc1ccc(S(=O)(=O)Nc2ccc(OC)cc2)cc1`, the displacement was -0.2%.
Take `COc1ccc(CSc2nnc(SCc3ccc(OC)cc3)s2)cc1`: the displacement is -0.6%.
With `O=S(=O)(NCc1ccccc1)c1ccc2ccccc2c1` the figure was 1%.
With `CNC(=O)C(=O)Nc1ccc(Oc2ccccc2)cc1` the figure was -4.6%; with `O=C(COc1ccc(Br)cc1)Nc1ccc(Nc2ccccc2)cc1`, 45.7%.
In the case of `CN(C)c1ccnc2sc(C(=O)c3ccc(Br)cc3)c(N)c12` it was 10%.
Take `COCCOC(=O)c1ccc(NC(=O)COc2cc(C)ccc2C(C)C)cc1`: the displacement is -15.3%.
In the case of `Cc1nc2ccccc2n1CC(O)COc1cccc(Cl)c1` (centres undefined) it was 9.9%; in that of `O=C1/C(=C/c2nc3ccccc3c(=O)n2-c2ccccc2)c2ccccc2N1Cc1ccccc1`, 0.1%; in that of `CCOC(=O)c1c(N)sc(C(=O)N2CCCC(C(N)=O)C2)c1C` (centres undefined), -3.8%.
Take `CN(C)c1ccc(/C=C2\SC(=S)N(c3ccccc3Cl)C2=O)cc1`: the displacement is -13.6%.
With `O=C(N/N=C/c1cc(Cl)cc(Br)c1O)c1ccccc1[N+](=O)[O-]` the figure was 8%.
In the case of `Cc1cccc(-c2noc(-c3ccc(C)c([N+](=O)[O-])c3)n2)c1` it was 76.1%.
With `CCC(C)NC(=O)CN(c1ccc(OC)cc1OC)S(=O)(=O)c1ccc(C)cc1` (centres undefined) the figure was 0.7%.
As to `CC1=C(C(=O)OC2CCCC2)C(c2cccc(F)c2)C2=C(CC(C)(C)CC2=O)N1` (centres undefined), the displacement is 21.9%.
With `C=CCn1c(-c2nonc2NC(C)=O)nc2ccccc21` the figure was -0.4%; with `COc1ccc(/C(N)=N/OC(=O)c2ccccc2I)cc1`, 2.2%; with `CCCOc1ccc(N/C(N)=N/c2nc(C)cc(C)n2)cc1`, -7.1%.
For `CCn1c(C)[n+](CC)c2ccc(S(=O)(=O)N3CCCCC3)cc21`, the displacement came out at 17.9%.
With `CCOc1ccc(N2C(=O)S/C(=C\c3ccc(OC)cc3)C2=O)cc1` the figure was 13.2%; with `C=CCNC(=S)NC(=O)/C=C/c1ccco1`, 7.4%.
Take `Cc1cccc(CC2CC(=O)N(CCc3ccc4c(c3)OCO4)C2=O)c1` (centres undefined): the displacement came out at 9.5%.
`O=C1NC(=S)NC(=O)C1=Cc1ccc(Cl)cc1Cl`: the displacement came to 10.9%.
With `COc1ccc(NC(=O)CN(c2ccc(Br)cc2)S(C)(=O)=O)cc1OC` the figure was -11.5%; with `COc1cccc(/C=N/N2CCN(Cc3cccc4ccccc34)CC2)c1`, 11.9%; with `Cc1cc(OC(=O)c2ccc(Cl)c([N+](=O)[O-])c2)ccc1C(C)C`, 6.2%.
In the case of `CN1C(=O)/C(=C\c2cccc(OCc3ccc(Cl)cc3Cl)c2)SC1=S` it was -5.1%; in that of `COc1nsnc1NS(=O)(=O)c1ccc(NC(=S)NC(=O)c2sc3cc(F)ccc3c2Cl)cc1`, 15.4%; in that of `O=c1[nH]c(=O)n(-c2cccc(Br)c2)c(O)c1/C=C1\C=Nc2ccccc21`, 33.4%.
With `CCOC(=O)C(Oc1ccc2c(oc(=O)c3ccccc32)c1C)c1ccccc1` (centres undefined) the figure was -5.8%; with `O=C(COc1ccc([N+](=O)[O-])cc1)Nc1cc(-c2nc3ccccc3s2)ccc1Cl`, 9%; with `O=C(CSc1nc2ccccc2n1Cc1ccccc1)N/N=C/c1cccs1`, -0.3%.
For `CCC(C)OC(=O)C1=C(C)NC2=C(C(=O)CCC2)C1c1cccs1` (centres undefined), the displacement was -12.7%.
In the case of `COc1ccc(/C=C2/NC(=S)NC2=O)c2ccccc12` it was -8.3%; in that of `CCOC(=O)c1c[nH]c2c(C)ccc(Cl)c2c1=O`, 10.3%.
With `CC(=NCc1ccccc1)c1c(O)[nH]c2ccccc12` the figure was -10.2%; with `COc1nc(N/N=C\c2ccc3c(c2)OCO3)nc(N2CCOCC2)n1`, 2.3%.
`O=C(COc1ccccc1)Nc1nc(-c2ccc3c(c2)Cc2ccccc2-3)cs1`: the displacement amounted to 8.6%.
In the case of `O=C(O)CCCCCN1C(=O)C(=O)/C(=C(/O)c2ccc(Cl)cc2)C1c1ccc([N+](=O)[O-])cc1` (centres undefined) it was -7.8%.
Regarding `COc1ccccc1NC(=O)c1cc(-c2cccs2)nc2ccccc12`, the displacement is -3.7%.
In the case of `O=C(Nc1cccc(Cl)c1)Nc1nnc(CSCc2ccc(Cl)cc2Cl)s1` it was 11.6%; in that of `COC(=O)COc1ccc(/C=C2\C(=O)NC(=S)N(c3ccc(F)cc3)C2=O)cc1OC`, -3.2%.
With `COc1cc(C2Nc3ccccc3NC3=C2C(=O)CCC3)ccc1O` (centres undefined) the figure was 3.3%; with `Cc1ccc(/C(N)=N/OC(=O)c2ccc(I)cc2)cc1`, 4.3%.
In the case of `O=C1C(=O)N(CCc2ccccc2)C2C=CC=CC12` (centres undefined) it was 1.1%.
On to `CN1C(=O)C(=Cc2cccc(Br)c2)C(=O)N(C)C1=O`, for which the displacement stood at 2%.
With `CC(C)CC(=O)N1CCN(S(=O)(=O)c2ccc(Cl)cc2)CC1` the figure was -5.8%.
In the case of `Oc1ccc(-c2nc(-c3ccccc3)c(-c3cccs3)[nH]2)cc1O` it was 13.9%; in that of `CC(C)N(Cc1ccccc1)S(=O)(=O)c1ccc(F)cc1`, 12.3%; in that of `O=C1CC(c2ccccc2)CC(O)=C1C=NCC1CCCO1` (centres undefined), 39.8%.
For `NC1=NC2(CCCCC2)N=C(Nc2cccc3ccccc23)N1`, the displacement is -9%.
In the case of `Cc1ccc(OCC(=O)Nc2ccc3oc(-c4cccnc4)nc3c2)c(C)c1` it was 10.5%; in that of `Cc1cc(/C=C2\C(=O)NC(=O)N(c3ccc(Cl)cc3)C2=O)c(C)n1-c1cccnc1`, -3.5%.
In the case of `O=C(Nc1ccccc1C(=O)N1CCN(Cc2ccccc2)CC1)c1ccccc1Cl` it was -4.9%; in that of `CN1C(=O)/C(=C/c2ccc(-c3ccc([N+](=O)[O-])cc3)o2)SC1=S`, -0.4%; in that of `COc1ccc(Br)cc1/C=C/C(=O)Nc1ccc(F)c([N+](=O)[O-])c1`, 8.1%.
Turning to `COc1ccc(C2CC(=O)C(C)(C)O2)cc1` (centres undefined), the displacement worked out at 10.9%.
Take `CCOC(=O)c1c(-n2ncnc2-c2ccc([N+](=O)[O-])cc2)sc2c1CCCC2`: the displacement was determined as 6.5%.
With `Cc1ccc(CNC(=O)C(=O)Nc2ccc(Br)cc2)cc1` the figure was -0.7%; with `COc1ccc(N2C(=O)NC(=O)/C(=C\c3ccc(OCC(=O)O)c(Br)c3)C2=O)cc1`, -20%.
